# According to PubChem BioAssay AID504332 (National Center for Advancing Translational Sciences (NCATS), 2011):
# The campaign covered roughly 350,000 compounds. About 31,000 (8.9%) were called active. Inconclusive means that the source gave no clear call. Such entries were picked first, then a sample of the others. Calls come from the whole dose curve; as a rule, active = well fitted inhibition curve with a large enough effect; inconclusive = small, poorly fitted or top-dose-only effect; inactive = no such curve, though single readings can be large or run the other way. Where the call is inconclusive, the potency comes from a doubtful curve fit.
# Molecular target: Histone-lysine N-methyltransferase EHMT2 (Homo sapiens) (UniProt Q96KQ7)
# Assay: qHTS Assay for Inhibitors of Histone Lysine Methyltransferase G9a; note: nearly all actives have a fitted effect of over 75% in size
# Details: G9a H3K9 monomethylation, AlphaScreen, 2 h; activity, negative = inhibition: at 59 µM (top of the series) unless noted
# In short: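 Compounds were preincubated with 20 nM G9a for 15 min, after which biotinylated H3K9 peptide (500 nM) and SAM (20 uM) started a 2 h room-temperature reaction. Monomethylated product was quantified by antibody-based AlphaScreen chemiluminescence.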
# % is set by controls: 0 for no effect and ±100 for the full control effect; potency is the fitted concentration of half-maximal effect; tags give direction and shape of the fitted curve.
# UniProt Q96KQ7, sequence (Q96KQ7 whole entry, looked up): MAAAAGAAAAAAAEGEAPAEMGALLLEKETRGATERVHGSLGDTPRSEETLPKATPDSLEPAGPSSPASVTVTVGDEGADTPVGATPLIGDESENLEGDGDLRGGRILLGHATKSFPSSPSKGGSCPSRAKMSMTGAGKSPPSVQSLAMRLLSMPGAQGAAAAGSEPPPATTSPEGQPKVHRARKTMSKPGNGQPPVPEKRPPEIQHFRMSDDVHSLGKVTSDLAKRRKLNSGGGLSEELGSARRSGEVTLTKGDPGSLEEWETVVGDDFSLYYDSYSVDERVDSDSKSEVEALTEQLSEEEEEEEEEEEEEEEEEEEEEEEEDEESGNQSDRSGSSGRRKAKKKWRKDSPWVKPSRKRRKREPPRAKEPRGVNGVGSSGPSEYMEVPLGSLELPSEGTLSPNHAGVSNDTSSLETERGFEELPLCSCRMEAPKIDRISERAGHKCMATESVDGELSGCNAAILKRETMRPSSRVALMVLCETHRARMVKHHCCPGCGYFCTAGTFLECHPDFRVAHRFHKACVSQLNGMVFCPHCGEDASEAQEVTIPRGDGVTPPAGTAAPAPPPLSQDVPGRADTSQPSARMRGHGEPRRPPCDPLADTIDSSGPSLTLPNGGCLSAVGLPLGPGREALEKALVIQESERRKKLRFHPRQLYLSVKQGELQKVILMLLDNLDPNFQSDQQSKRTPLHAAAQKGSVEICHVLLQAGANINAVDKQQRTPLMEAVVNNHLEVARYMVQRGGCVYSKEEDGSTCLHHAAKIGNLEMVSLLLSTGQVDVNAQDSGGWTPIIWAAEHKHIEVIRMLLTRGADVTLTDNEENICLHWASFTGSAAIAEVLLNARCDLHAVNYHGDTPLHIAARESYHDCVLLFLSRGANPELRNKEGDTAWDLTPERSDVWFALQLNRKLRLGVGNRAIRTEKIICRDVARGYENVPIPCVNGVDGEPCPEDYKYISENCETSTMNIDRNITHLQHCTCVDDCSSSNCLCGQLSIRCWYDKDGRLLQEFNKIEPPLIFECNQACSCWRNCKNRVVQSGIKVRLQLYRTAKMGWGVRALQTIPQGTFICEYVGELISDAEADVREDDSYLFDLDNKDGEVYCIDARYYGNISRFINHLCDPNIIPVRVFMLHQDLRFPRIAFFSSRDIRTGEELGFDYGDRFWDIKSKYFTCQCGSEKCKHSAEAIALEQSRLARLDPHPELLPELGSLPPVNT
SMILES,"activity, negative = inhibition",Potency
CCc1cn(C2CC(O)C(CO)O2)c(=O)[nH]c1=O (configuration not stated),inconclusive: -89.1% [inhibitor] [at 12.7 µM],
Cc1cc(Cl)c(S(=O)(=O)N/N=C/c2ccc3c(c2)OCO3)c(Cl)c1,inconclusive: -87.8% [inhibitor],
CC(C)Sc1ncc(Cl)c(C(=O)Nc2ccc(S(=O)(=O)Nc3ncccn3)cc2)n1,,"inconclusive: 31.6 µM [inhibitor, partial curve, poor fit]"
COC(=O)c1cc(=O)n(-c2ccc(F)cc2)c(=Nc2ccc(F)cc2)s1,,active: 39.8 µM
CC1CCCC(C)N1/N=C/c1ccc(O)c(O)c1 (configuration not stated),,active: 3.55 µM
CCC(=O)N1CCN(c2nc3ccc(Br)cc3s2)CC1,,"inconclusive: 79.4 µM [inhibitor, single point]"
CC(Oc1cccc(F)c1)C(=O)Nc1ccc(N2CCOCC2)cc1 (configuration not stated),,"inconclusive: 15.8 µM [inhibitor, partial curve, poor fit]"
Cc1ccc2oc(=O)cc(CN3CCOCC3)c2c1,,"inconclusive: 50.1 µM [inhibitor, partial curve]"
CC1CN(S(=O)(=O)c2cccc(C(=O)Nc3cc(Cl)ccc3N3CCOCC3)c2)CC(C)O1 (configuration not stated),inactive: -11.6%,
Cc1cc(NC(=O)CSC2=NS(=O)(=O)c3ccccc3N2)no1,,"inconclusive: 89.1 µM [inhibitor, single point]"
S=C(Nc1ccc(Cl)cc1)Nc1cccc2cnccc12,,active: 44.7 µM
O=C(c1ccco1)N1c2ccccc2Sc2ccccc21,,"inconclusive: 39.8 µM [inhibitor, single point]"
O=S(=O)(c1ccc2c(c1)nc1n2CCC1)N1CCOCC1,,"inconclusive: 22.4 µM [inhibitor, single point]"
CCN1CCC(=NNC(=O)c2ccc(C)c([N+](=O)[O-])c2)CC1,,"inconclusive: 39.8 µM [inhibitor, single point]"
O=C1c2ccccc2C(=O)N1CC#CCN1CCN(C2CCCCC2)CC1,,active: 20 µM
O=C(CSc1ncc(-c2ccccc2)[nH]1)Nc1cccc(C(F)(F)F)c1,,"inconclusive: 20 µM [inhibitor, partial curve, poor fit]"
CCN(CC(=O)Nc1cc(Cl)ccc1C)C(=O)Cn1c(=O)cnc2ccccc21,,"inconclusive: 89.1 µM [inhibitor, partial curve, poor fit]"
O=C(O)CCCCCNS(=O)(=O)c1ccc2c3c(cccc13)C(=O)N2,,active: 79.4 µM
CC1CC(C)CN(C2CCCCC2NS(=O)(=O)c2ccc(Cl)cc2)C1 (configuration not stated),inactive: 24% [at 102 µM],
CCn1c(SCC(=O)Nc2oc(-c3ccccc3)c(-c3ccccc3)c2C#N)nnc1-c1ccncc1,,active: 7.94 µM
C[C@H](N)CCCC(C)(C)O,inactive: 13% [at 21.5 µM],
O=C(O)c1cc(-c2ccc(/C=C3/SC(=S)N(Cc4ccccc4)C3=O)o2)ccc1Cl,,active: 12.6 µM
CSc1nc(N)c2ncn([C@@H]3O[C@H](COP(=O)(O)OP(=O)(O)O)[C@H](O)[C@H]3O)c2n1,inactive: 19.8% [at 12.7 µM],
COC(=O)c1sc(N)c(C(=O)OC)c1CSc1nc2sc3c(c2c(=O)n1C)CCC3,,"inconclusive: 28.2 µM [inhibitor, single point]"

SMILES,"activity, negative = inhibition",Potency
Cc1ccccc1CCNC(=O)C1CCN(c2nc3ccccc3nc2C(F)(F)F)CC1,inactive: 6.11%,
Cc1cc(-c2nnc(SCC(=O)Nc3ccccc3C(F)(F)F)o2)c(C)n1-c1ccccc1,,"inconclusive: 1.78 µM [inhibitor, partial curve, poor fit]"
OCCN1CCN(c2ncnc3c2c(-c2ccccc2)cn3-c2ccc(F)cc2)CC1,inactive: -44.2% [at 102 µM],
COc1ccc(NS(=O)(=O)c2ccc3c(c2)CCO3)cc1,inactive: 34.6% [at 102 µM],
COc1ccc(/C(C)=N/Nc2nc(C)c(C(C)=O)s2)cc1,,"inconclusive: 79.4 µM [inhibitor, partial curve, poor fit]"
Cc1ccc(N2C(=O)[C@@H]3[C@H](C2=O)[C@H]2C=CC=NN2[C@@H]3C(=O)Nc2ccc(Cl)cc2)cc1,,active: 3.16 µM
CCOC(=O)c1cc(=O)[nH]c2ccccc12,inactive: 8.96% [at 102 µM],
CC(=O)Nc1ccc(Nc2cc(C)nc(Nc3ccc(NC(C)=O)cc3)n2)cc1,inactive: -6.09% [at 2.33 µM],
CCOC(=O)c1c(O)c(O)c(C(=O)OCC)n1-c1ccccc1,,active: 8.91 µM
O=C(NCc1cccs1)c1cccc(Nc2nc3ccc(Br)cc3[nH]2)c1,inconclusive: -109% [inhibitor],
CCOC(=O)c1nn(-c2ccc(C)cc2)cc1C(=O)c1ccccc1,,"inconclusive: 20 µM [inhibitor, partial curve, poor fit]"
CCn1cc(C(C)(C)C)c(C#N)c1NC(C)=O,,"inconclusive: 50.1 µM [inhibitor, partial curve]"
CC(=O)C1=C(C)NC(C)=C(C(C)=O)C1c1ccc(-c2ccccc2Cl)o1,,"inconclusive: 50.1 µM [inhibitor, partial curve, poor fit]"
COC(=O)C1=C(C)N(c2ccc(Br)cc2)C(=O)/C1=C\c1ccco1,inactive: -24.3%,
COc1ccccc1N(C)S(=O)(=O)c1ccc(C(=O)NC(C)(C)C)cc1,,"inconclusive: 89.1 µM [inhibitor, partial curve, poor fit]"
COC(=O)c1ccccc1NC(=O)CSc1nc(-c2ccco2)cc(C(F)(F)F)n1,,"inconclusive: 79.4 µM [inhibitor, partial curve, poor fit]"
CCCCN(C(=O)CCNC(=O)NC12CC3CC(CC(C3)C1)C2)c1c(N)n(CCCC)c(=O)[nH]c1=O,inactive: -3.13% [at 0.501 µM],
Cc1ccc(Oc2ccc(OCC(=O)NC(CC(C)C)C(=O)O)cc2)cc1 (configuration not stated),,"inconclusive: 11.2 µM [inhibitor, partial curve, poor fit]"
O=C(NCCc1ccccc1)c1cccc(N2C(=O)C3CC=CCC3C2=O)c1 (configuration not stated),,"inconclusive: 89.1 µM [inhibitor, single point]"
CC(C)(C)NCc1cc2ccccc2[nH]c1=O,inactive: 8.29% [at 102 µM],
COc1ccccc1CNC(=O)Cn1c(=O)oc2cc(S(=O)(=O)NCc3ccccc3)ccc21,inactive: 4.83%,
CCN(CC)C(=O)CC(c1ccc(N(C)C)cc1)c1c(O)cc(OC)cc1OC (configuration not stated),inconclusive: -82.8% [inhibitor],
Cc1ccccc1CN1CCc2c(OCC(=O)N3CCCc4ccccc43)cccc2C1=O,,"inconclusive: 28.2 µM [inhibitor, single point]"
O=c1[nH]cnc2c1ncn2[C@@H]1C[C@@H](O)[C@H](CO)O1,inactive: 12.1% [at 102 µM],

SMILES,"activity, negative = inhibition",Potency
Cc1ncc([N+](=O)[O-])n1S(=O)(=O)c1cc(Br)ccc1Br,,"inconclusive: 89.1 µM [inhibitor, single point]"
Cc1cc(C)c2c(CC(=O)Nc3ccc(S(=O)(=O)Nc4ncccn4)cc3)coc2c1,,"inconclusive: 10 µM [inhibitor, partial curve, poor fit]"
CCn1c(O)c(N=NC(=O)CNC(=O)c2ccco2)c2ccccc21,inactive: 7.39%,
Cc1cccc(NC(=O)Cn2nc(C(F)(F)F)cc2C2CC2)c1,inconclusive: -53.8% [inhibitor],
O=C(/C=C/c1ccccc1[N+](=O)[O-])N1CCc2ccccc2C1,,"inconclusive: 2.82 µM [inhibitor, single point]"
CN(C(=O)CSc1nnc(-c2n[nH]c3ccccc23)o1)c1ccccc1,,"inconclusive: 50.1 µM [inhibitor, partial curve]"
COc1cc(NC(=S)NC(=O)C(C)C)ccc1NC(=O)c1cc2ccccc2o1,,"inconclusive: 44.7 µM [inhibitor, partial curve, poor fit]"
Cc1n[nH]c(=S)c2nn(-c3cccc(Cl)c3)c(C)c12,inconclusive: -54% [inhibitor],
CCN(CC)c1ccc2cc(-c3nc4ccccc4[nH]3)c(=O)oc2c1,inactive: -4.01%,
Cc1cc(C)cc(NC(=O)COC(=O)CC2CCCC2)c1,inactive: 20.3% [at 2.33 µM],
O=C(Cn1nc(C(F)(F)F)c2c1CCC2)Nc1ccc(Cl)cc1,inactive: -2.51%,
CCOc1cc2c(cc1OCC)C(c1ccc(OC)c(OC)c1)N(c1ccc(C(=O)O)cc1)C(=O)C2 (configuration not stated),,"inconclusive: 50.1 µM [inhibitor, partial curve]"
O=C(CSc1n[nH]c(-c2ccncc2)n1)Nc1ccc(F)cc1,inactive: 5.07% [at 102 µM],
CCN(CC)C(=O)c1sc(NC(=O)c2cc(-c3ccc(C)s3)nc3ccccc23)c(C(=O)OC)c1C,,active: 39.8 µM
Cn1sc(NC(=O)c2ccc(Cl)cc2)nc1=O,,active: 39.8 µM
CCNc1nc(NCC)nc(NC(N)=S)n1,,active: 25.1 µM
COC(=O)C[n+]1cccc2ccccc21,,"inconclusive: 39.8 µM [inhibitor, partial curve, poor fit]"
CCOc1ccc(C(=O)Nc2ccc3c(c2)OCCO3)cc1OC,inactive: 4.95%,
COc1ccc(OC)c(NC2=C(Cl)C(=O)N(Cc3ccccc3)C2=O)c1,inactive: -115%,
C=CCNC(=S)Nc1ccc(Cl)cc1,inactive: 24.4% [at 102 µM],
COC(=O)CCCC1=CC2=CC(=O)C(C)(OC(=O)c3cccs3)C(=O)C2=CN1C1CC1 (configuration not stated),inactive: -4.7%,
C#CCNC(=O)C1=C[C@H](c2ccc(C(F)(F)F)cc2)C[C@H](OCCCCO)O1,inconclusive: -92.8% [inhibitor],
O=C(Oc1ccc[nH]c1=O)c1cccc(Cl)c1,,"inconclusive: 89.1 µM [inhibitor, single point]"
CC1(C)CC2CC(C)(CN2S(=O)(=O)c2ccc(C(=O)Nc3cccc(S(=O)(=O)N4CCOCC4)c3)cc2)C1 (configuration not stated),,"inconclusive: 3.98 µM [inhibitor, single point]"
